In the RNAGym collection of RNA variant scans (doi:10.7554/elife.90254) one finds self-cleavage data, which are given here for 167 variants.

The labels stand for the following.
B1: LINE1-full (parent)
chain: UACGUAGGUGGUUUUCCCCUGAUAGUGCUAAGGGGGCCUGGAAGUUUGGACUGGGCAGAGCUCAACACAGCGUGGCAAAGUGGCUGUGGCUAGACUGCCUCUCUGGAUUCCUCGUCACUCAGCAGGGCAUCUCUGAGAGAAAUGCC

The source gives no read counts; variants with many changes may rest on few reads.

In this data set the parent is B1. Description: self-cleavage, relative activity (ratio to wild type); higher = more cleavage; in vitro, sequencing; the parent is a self-cleaving ribozyme.
For G7A A42G A78G U81A U85A G139A, the self-cleavage stood at 0.21. Then U9A G48U U96C A121G, with 0; and A6G U12A C37G, with 0.35; and G7A U29A U47C A50G C51G U81C A141G, with 2.04. To A6U U47A A92G G114A belongs 0.14; to A6G U46C C56U, 0.52. To U9A U46C A94G U96C U134A belongs 0.42; to A6G U12C U15A A57G U108A, 0.93.

As to U9A U12G A43G, the self-cleavage turned out to be 1.01.

For the variant U9A U12G U20A A50G G122U, the self-cleavage was 0.34. Then U9A A22U A64U C113U, with 0.41; and U9A U12C U39A, with 0.66; and A6G U39C U87G U100A U130C, with 0. Then U9A U45C U52G, with 1.53; and U9A U52A A65U G126A U134A A138G, with 0.2. In the case of U9A U14C U81C, the self-cleavage amounted to 0.25.

On to A6U A117G U134C, for which the self-cleavage came to 0.89. Turning to A6U U108C A140G, the self-cleavage is 2.3. Then G7A A42G A79G, with 1.18; and G7U A31U U45C U81A, with 2.59. To G8A U119A U130A belongs 1.33. Then A6G U29C C146U, with 0.55.

G7A U39C U73C A92U A124G: the self-cleavage amounted to 0. Then A6U A30G U39G C56U A65G U85A, with 0; and A6G U46A U112C, with 1.25. Regarding G7A U26A U39C A50U, the self-cleavage is 0.36.

With A6G U13C U26C A141G, the self-cleavage came out at 0.66. To A6G U52A G93A A121U belongs 0.1; to G7A A30G C37U, 1.2. To A6G U87C A107G belongs 0.66; to U9A U12C U52C U132A, 1.48; to U9A A50G A121G, 0.66. To A6U U15C C18U U102A belongs 1.02.

A6U U14A A107G U112A: the self-cleavage came out at 0.26. To A6U U14C U47C belongs 0.15; to G8A U20A A142U, 1.31. As for U9A U13C A22G U39A, the self-cleavage is 1.33.

With A6G U15C U52A U108C, the self-cleavage is 0.66. To U9A C61U A136G belongs 0.05.

For the variant G8A U45C A138U, the self-cleavage was determined as 0.97. To G7C U39A U112A belongs 2.42; to G7A A79G U115C, 0.44; to A6U A64G C90G U112A, 0.27. Then U9A A22G A78C A79U U104C, with 2.53; and A6U A140G A142G, with 1.31. Regarding A6G U14C A78G, the self-cleavage came out at 0.99. Then A6G G82A A141G, with 1.26; and G8C U100C A129G, with 2.55. To A6G U12C A141G belongs 2.23. Take G7U U47A A77U A79G A129U U130C: the self-cleavage is 1.16. In the case of U9A U26A A57G U100C, the self-cleavage worked out at 2.42. Then U9A U47A U96A, with 0.13. To A6G U26A G44A A59G belongs 0.23; to G7U A92G U102C, 0. A6G U20G A78G U115C: the self-cleavage was 0.48. To U9A U26A A50G A94U A138G belongs 0.78.

Take A6G U13C C116A: the self-cleavage is 2.04. To A6U A22U U39A A64U A69G U108C belongs 0.66. U9A G122U A140U A141G: the self-cleavage came out at 1.42. To A6U G11A U15A U91C C120U belongs 0.9; to A6G U26C A64U A78U U104C A138G, 2; to A6U C63U U104G U130A, 0.48. Then G7A G8U U12G A30G A57U A141G, with 0.21; and A6U U23C G33U A94U, with 0.3; and G7A U39C G88A U102C, with 0. Turning to U9A U13C A24G A77G A142G, the self-cleavage is 0.32. Then A6G U13C U96C C123G, with 0.22; and A6U A121U A142G, with 0.51.

With A6U A142G U143A, the self-cleavage was 1.04. To G7C A94G A107U U115C A136G belongs 1.31; to U9A U47C U100C, 0; to G7A U14C U52A U96C C111U, 0.05. To A6U U20C A57G U62C A78G G122A belongs 0; to A6U U73A U85C U100A G114A A124U, 0.09; to A6U G40A A59G U130C, 0.11.

In the case of A6U U20G U96C A124U, the self-cleavage was 0. Then A6U G33C U62C A124G, with 0.2; and U9A U39C A42U U96C, with 0. To G7U A43G U119C belongs 1.53; to G8A U85C A136G, 0.5. To A6G U15A A107G belongs 0.63; to G7U A57G U81A U100C, 2.35; to G8U U112C A141G, 1.72. Regarding U9A A43G A117U A142G, the self-cleavage came to 1.56. To A6G U45A U130C belongs 1.01. Then U9A U13C C18U G49A, with 0.29; and U9A A30G C66U U115A, with 0.19. To U9A U12C A42G belongs 0.98. Turning to U9A A92U G137A, the self-cleavage came out at 0.18. To U9A G33A U81C belongs 0.89; to U9A U45G U132C A136G, 1.15. To G7A A43G A57G belongs 0.59; to A6G U13C U46C U112A, 1.18; to A6U A77U A79G A107U U134A, 0.28.

In the case of A6G U12G U15G U26C G44A U96C, the self-cleavage came to 0.

As to U9A U47A G114A, the self-cleavage is 0.98. Then U9A U14C G27A A50G U96C, with 0; and G7A U9G U29A C110U, with 1.02. To U9A A77G A136G belongs 1.84; to G7A U87C U119A A124U U130C, 0.3. For the variant G7A C16U U130C, the self-cleavage came to 0.91. To U9A A24G A65G A69G A117U belongs 0; to G7A U26C A69G U73A, 0.08. To G8A U9C U47C C56A U62C belongs 0.13; to A6G U14C U23C U62A G122A, 0.25. Then G7C A94G U104A A138G, with 0.75. With A6G U20A A42G U112C U115G G122C A124G U143C, the self-cleavage was found to be 1.84.

Consider G8C A22U U47C, for which the self-cleavage came out at 1.92. To A6G U9A U91C belongs 0.5; to U9A U26A A107G U112C, 0; to U9A C16U U46C A78G, 0.82.

With G7A U13C U39C U45A, the self-cleavage stood at 1.3. To U9A A117G G125A belongs 1.09. Then G7A U20A U47C, with 2.02. Then U9A A78C U102C, with 1.15.

As to A6U U14C G33U A79G G83C, the self-cleavage was 1.15. For the variant A6G U12A A43U A65U A69G A107C, the self-cleavage is 0.

Take U9A A69G U134C: the self-cleavage was found to be 0.53.

Regarding G7U A30G U119C, the self-cleavage worked out at 1.02. Consider G7A U20G U87C, for which the self-cleavage turned out to be 0.47. Take A6G U26A A107G: the self-cleavage is 0.53. To A6U A31G A79G C111U belongs 1.74; to U9A A24G U45C U62C, 0.46; to G7A G88A U130A U143C, 0.07. G7U A79G C99U: the self-cleavage was determined as 0.06. To G8A U23C U26C U47A A129G belongs 2.3; to G7A U9C A43G U73A A141G, 1.36.

Regarding U9A U13C A42G U87A, the self-cleavage turned out to be 0.17. Regarding U9A G27A A78G U130C, the self-cleavage was found to be 1.07. To U9A U20A U108C U130A belongs 1.81. Then G7C A64U A78U U130C A140G, with 0.85; and U9A A42G G48A A141G, with 0.88.

On to U9A G55A U102A, for which the self-cleavage worked out at 0.11. In the case of U9A U20C U62C A77G C95U U112C, the self-cleavage is 0. Then U9A A30G G74A, with 0.75; and A6U G86A U119C A129U, with 0.2.

For G8U G41A G58A, the self-cleavage is 0.08. To G7A U14C C17U C56U belongs 0.33. Then A6G U15C U47G A77G U81C G97U A141G, with 0.36; and U9A U23C A43G, with 0.89; and G7A U15C U23C U29C U47C A57C U85A A121U, with 0.

As for G7U A22G U91C, the self-cleavage turned out to be 0.31. Then U9A U14C U20C U104C, with 2.26; and A6G U14C U26G U39C U45C A124G, with 0.84; and G7A A67C U112A, with 0.03. Then G7A U12C C66U, with 0.12; and A6G U26C U52A A121C, with 1.28.

For the variant A6U A77G U87A A92G U100A U119C U132A, the self-cleavage is 0. Then U9A U29G A79G A140G, with 0. As for G7A U9A U119A A124G, the self-cleavage came out at 0.21. Then A6G U12C U13C G36C G97C, with 0.06. As for G7A U23C A142G, the self-cleavage amounted to 1.56.

In the case of G8A U102C U132A, the self-cleavage turned out to be 1.82.

Consider U9A U47C U52A A65G U73C U87A, for which the self-cleavage amounted to 0.

With G8A A69U C111U A129G, the self-cleavage is 0.1. Then U9A G36A G55A A117C, with 0.82; and G8A C120U G127A U130C, with 1.18.

Turning to U9A G35A A59G U73A U130C A138G, the self-cleavage turned out to be 0.04.

With U9A U14C U87A U109A, the self-cleavage was found to be 0.1. Then A6G U109C C120A, with 0.74; and A6G U26C A43G A77U C131U, with 0; and A6U C28A C66G A79G A141G, with 0.06.

For the variant A6G U12A U62C A117G, the self-cleavage is 0.67. Then A6G U46C U87C, with 0; and U9A U13C C120A, with 0.83. G7U A64G A69U: the self-cleavage came out at 0.16. To A6U U12G U87A A129G A140G belongs 0.
